The values that follow come from patent publication US20220387557A1 (OXFORD UNIVERSITY INNOVATION, published 2022).

In assay [1] the target is T1, Fc tagged human TNFR2 (Sino Biological) (human, UniProt P20333 23-257).
T1 construct: Bought reagent; also called hTNFR2; hTNFR2-Fc; not shown: Fc tag of the bought protein
T1 sequence (looked up): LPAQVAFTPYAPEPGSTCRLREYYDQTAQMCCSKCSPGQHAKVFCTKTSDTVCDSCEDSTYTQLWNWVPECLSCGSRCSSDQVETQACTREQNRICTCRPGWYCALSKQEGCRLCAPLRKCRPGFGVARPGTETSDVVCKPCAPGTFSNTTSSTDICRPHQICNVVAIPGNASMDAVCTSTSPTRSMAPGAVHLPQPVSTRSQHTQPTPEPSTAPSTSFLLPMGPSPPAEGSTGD
Briefly: SPR (Biacore T200) single cycle kinetics, Fc-tagged receptor captured on Protein A chip, TNF protein as analyte at 1.67-15 nM. The protocol:
(§1) Single cycle kinetic analysis was performed using a Biacore T200 (serial no. 1909913) running Biacore T200 Evaluation Software V2.0.1 (Uppsala, Sweden). All experiments were run at 25° C. with HBS-P+ running buffer (pH 7.4) (GE Healthcare, Little Chalfont, UK).
(§2) Due to the limit in the number of available flow cells for analysis (three Fc per analysis, Fc2, Fc3 and Fc4, with Fc1 always being used as blank reference for non-specific subtraction), receptor binding was assessed in two separate overlapping runs using either: hTNFR1 (Fc2), hTNFR2 (Fc3) and mTNFR1 (Fc4), or; hTNFR1 (Fc2), […] and mTNFR2 (Fc4). Receptors were diluted in running buffer to a concentration of ˜4 μg/mL and at the start of each cycle loaded onto Fc2, Fc3 and Fc4 of a Protein A chip (GE Healthcare, Little Chalfont, UK) at a flow rate of 10 μL/min to give an RU of 40-100. The surface was then allowed to stabilise. Single cycle kinetic data was obtained at a flow rate of 45 μL/min. […] The association phase for the three injections of increasing concentrations of TNF was monitored for 240 seconds and a single dissociation phase was measured for 2700 seconds following the last injection of TNF. Regeneration of the Protein A surface was conducted using 10 mM glycine-HCl pH 1.5. The signal from the reference channel Fc1 (no receptor) was subtracted from that of Fc2, Fc3 and Fc4 to correct for differences in non-specific binding to a reference surface.
(§3) Controls were used to ensure the integrity of the receptors during the Biacore run.
A general note: In SPR one partner is held on a chip, and binding of the other changes the refractive index at the surface.

In assay [2] the target is T2, Fc tagged mouse TNFR2 (Sino Biological) (mouse, UniProt P25119 23-258).
T2 construct: Bought reagent; also called mTNFR2; mTNF2; not shown: Fc tag of the bought protein
T2 sequence (looked up): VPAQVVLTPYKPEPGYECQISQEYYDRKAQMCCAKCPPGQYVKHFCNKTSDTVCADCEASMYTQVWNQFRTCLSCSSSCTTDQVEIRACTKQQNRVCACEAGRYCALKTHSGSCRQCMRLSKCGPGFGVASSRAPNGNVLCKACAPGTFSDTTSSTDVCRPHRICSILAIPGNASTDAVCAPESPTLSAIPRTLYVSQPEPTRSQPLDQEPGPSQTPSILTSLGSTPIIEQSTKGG
The description is as above. The protocol: as §1, §2, §3

Assay [3] addresses T3, Fc tagged mouse TNFR1 (Sino Biological) (mouse, UniProt P25118 22-212, limits assumed).
T3 construct: Bought reagent; also called mTNFR1; mTNFR1-Fc; not shown: Fc tag of the bought protein
T3 sequence (looked up): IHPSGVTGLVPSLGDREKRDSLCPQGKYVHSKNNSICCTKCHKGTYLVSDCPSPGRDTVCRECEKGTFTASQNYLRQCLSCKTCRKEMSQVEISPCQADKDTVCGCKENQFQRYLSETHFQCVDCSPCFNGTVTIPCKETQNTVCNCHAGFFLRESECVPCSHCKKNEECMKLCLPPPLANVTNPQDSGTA
The assay is described as above. As to the method:
as §1, §2, §3

Assay [4] deals with T4, Fc tagged human TNFR1 (Sino Biological) (human, UniProt P19438 22-211, limits assumed).
T4 construct: Bought reagent; also called hTNFR1; hTNFR1-Fc; not shown: Fc tag of the bought protein
T4 sequence (looked up): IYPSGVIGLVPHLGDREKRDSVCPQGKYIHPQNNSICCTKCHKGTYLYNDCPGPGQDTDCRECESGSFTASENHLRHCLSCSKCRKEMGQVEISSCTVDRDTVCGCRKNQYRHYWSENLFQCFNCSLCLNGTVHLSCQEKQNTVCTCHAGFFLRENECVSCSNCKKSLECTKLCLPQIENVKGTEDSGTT
Briefly: SPR, Biacore T200 multi cycle kinetics, receptor-Fc captured on Protein A chip, TNF 1.25-40 nM, 1:1 model. As to the method:
Multi cycle kinetics analysis of binding to hTNFR1, hTNFR2, mTNFR1 and mTNFR2 was performed on the 10 lead variants using a Biacore T200 (serial no. 1909913) instrument running Biacore T200 Evaluation Software V3.0.1 (Uppsala, Sweden) to characterise further the binding to these receptors.
As with the single cycle kinetics, receptor binding was assessed in two separate experiments. In the first set of experiments binding to hTNFR1 (Fc2), hTNFR2 (Fc3) and mTNFR1 (Fc4) was assessed. In the second set of experiments the extent of mTNF2 (Fc4) binding was assessed using hTNFR1 (Fc2) and hTNFR2 (Fc3) as controls. All receptors were diluted in running buffer to a concentration of ˜4 μg/mL and at the start of each cycle loaded onto Fc2, Fc3 and Fc4 of a Protein A CM5 chip and captured at a flow rate of 10 μL/min to give an RU of ˜40-100. The surface was then allowed to stabilise. All kinetic data was obtained using a flow rate of 75 μl/min to minimise any potential mass transfer effects. […] The association phase of TNF was monitored for 280 seconds and the dissociation phase was measured for 2100 seconds. […] Regeneration of the Protein A surface was conducted using two injections of 10 mM glycine-HCL pH 1.5 at the end of each cycle. […]

B1: hTNF R32W S86T, soluble protein expressed from pANT65 (ligand)
chain: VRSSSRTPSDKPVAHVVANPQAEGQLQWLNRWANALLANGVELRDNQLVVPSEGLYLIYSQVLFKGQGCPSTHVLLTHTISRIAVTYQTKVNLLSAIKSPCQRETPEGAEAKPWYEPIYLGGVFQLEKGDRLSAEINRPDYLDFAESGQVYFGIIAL
notes: Comparator mutein of Loetscher et al., made by Quikchange mutagenesis of hTNF. 'S86R' in several paragraphs is read as a misprint of S86T; also called hTNF R32W S86R (as sometimes printed); human TNF RWST; not shown: C-terminal FLAG tag and His6 tag from vector pANT65
Turning to B1, the binding result in assay [1], in assay [2] and in assay [3] was “no binding (tested: 15 nM)” each time. The Kd (commonly the constant that tells how readily two partners part at equilibrium) in assay [4] came to 3.54 nM.
